From patent publication US20070099199A1
Several values for one entry are separate records, joined by “and”; a condition that tells them apart may be missing. Identical values can stand only once.

B1: GST-DLG2 PDZ domain 3 (protein)
chain: [about 200 residues not printed]SDLIEGRIWAVSLEGEPRKVVLHKGSTGLGFNIVGGEDGEGIFVSFILAGGPADLSGELQRGDQILSVNGIDLRGASHEQAAAALKGAGQTVTIIAQYQPED
B2: GST-NeDLG PDZ domains 1, 2 (protein)
chain: [about 200 residues not printed]SDLIEGRYEEIVLERGNSGLGFSIAGGIDNPHVPDDPGIFITKIIPGGAAAMDGRLGVNDCVLRVNEVDVSEVVHSRAVEALKEAGPVVRLVVRRRQPPPETIMEVNLLKGPKGLGFSIAGGIGNQHIPGDNSIYITKIIEGGAAQKDGRLQIGDRLLAVNNTNLQDVRHEEAVASLKNTSDMVYLKVAKPGSL
B3: GST-MINT1 PDZ domains 1, 2 (protein)
chain: [about 200 residues not printed]SDLIEGRIHFSKSENCKDVFIEKQKGEILGVVIVESGWGSILPTVIIANMMHGGPAEKSGKLNIGDQIMSINGTSLVGLPLSTCQSIIKGLKNQSRVKLNIVRCPPVTTVLIRRPDLRYQLGFSVQNGIICSLMRGGIAERGGVRVGHRIIEINGQSVVATPHEKIVHILSNAVGEIHMKTMPAAMYRLL
B4: GST-PDZK1 PDZ domains 2, 3, 4 (protein)
chain: [about 200 residues not printed]SDLIEGRQTWTQPRLCYLVKEGGSYGFSLKTVQGKKGVYMTDITPQGVAMRAGVLADDHLIEVNGENVEDASHEEVVEKVKKSGSRVMFLLVDKETDKRHVEQKIQFKRETASLKLLPHQPRIVEMKKGSNGYGFYLRAGSEQKGQIIKDIDSGSPAEEAGLKNNDLVVAVNGESVETLDHDSVVEMIRKGGDQTSLLVVDKETDNMYRLAHFSPFLYYQSQELPNGSVKEAPAPTPTSLEVSSPPDTTEEVDHKPKLCRLAKGENGYGFHLNAIRGLPGSFIKEVQKGGPADLAGLEDEDVIIEVNGVNVLDEPYEKVVDRIQSSGKNVTLLVCGKKAYDYFQAK
B5: GST-KIAA1526 PDZ domain 1, clone #119.1 (protein)
chain: [about 200 residues not printed]SDLIEGRPDSAGPGEVRLVSLRRAKAHEGLGFSIRGGSEHGVGIYVSLVEPGSLAEKEGLRVGDQILRVNDKSLARVTHAEAVKALKGSKKLVLSVYSAGRIPGGYVTNH
B6: GST-KIAA1719 PDZ domain 5 (protein)
chain: [about 200 residues not printed]SDLIEGRIQTTGAVSYTVELKRYGGPLGITISGTEEPFDPIVISGLTKRGLAERTGAIHVGDRILAINNVSLKGRPLSEAIHLLQVAGETVTLKIKKQLDR
B7: GST-HEMBA 1003117 PDZ domain 1, clone #226.2 (protein)
chain: [about 200 residues not printed]SDLIEGREDFCYVFTVELERGPSGLGMGLIDGMHTHLGAPGLYIQTLLPGSPAAADGRLSLGDRILEVNGSSLLGLGYLRAVDLIRHGGKKMRFLVAKSDVETAKKI
B8: GST-PTPL1 PDZ domain 2 (protein)
chain: [about 200 residues not printed]SDLIEGRGDIFEVELAKNDNSLGISVTGGVNTSVRHGGIYVKAVIPQGAAESDGRIHKGDRVLAVNGVSLEGATHKQAVETLRNTGQVVHLLLEKGQSPTSK
B9: GST-MAGI1 PDZ domain 2 (protein)
chain: [about 200 residues not printed]SDLIEGRPSELKGKFIHTKLRKSSRGFGFTVVGGDEPDEFLQIKSLVLDGPAALDGKMETGDVIVSVNDTCVLGHTHAQVVKIFQSIPIGASVDLELCRGYPLPFDPDDPN
B10: GST-DLG3 PDZ domains 1-2 (protein)
chain: [about 200 residues not printed]SDLIEGRYEEIVLERGNSGLGFSIAGGIDNPHVPDDPGIFITKIIPGGAAAMDGRLGVNDCVLRVNEVDVSEVVHSRAVEALKEAGPVVRLVVRRRQPPPETIMEVNLLKGPKGLGFSIAGGIGNQHIPGDNSIYITKIIEGGAAQKDGRLQIGDRLLAVNNTNLQDVRHEEAVASLKNTSDMVYLKVAKPGSL
B11: GST-SIP1 PDZ domain 1 (protein)
chain: [about 200 residues not printed]SDLIEGRIRLCRLVRGEQGYGFHLHGEKGRRGQFIRRVEPGSPAEAAALRAGDRLVEVNGVNVEGETHHQVVQRIKAVEGQTRLLVVDQN

How the values were obtained:
[1] = target: T1, HPV16 E6 C-terminal PDZ ligand (PL) peptide, biotinylated (human papillomavirus type 16); assay: Matrix/G assay ELISA; E6 peptide titrated on GST-PDZ
[2] = target: T1, HPV16 E6 C-terminal PDZ ligand (PL) …; assay: G assay ELISA; E6 PL peptide titrated on constant GST-PDZ
[3] = target: HPV E6 #16 PDZ ligand peptide (C-terminal peptide of the E6 protein of HPV 16) (HPV 16); assay: G assay ELISA, immobilised GST-PDZ, biotin peptide 10 uM
[4] = target: T1, HPV16 E6 C-terminal PDZ ligand (PL) …; assay: G assay ELISA; immobilised GST-PDZ, biotin-peptide 10 uM

Row | Binder | EC50 [1] [µM] | EC50 [2] [µM] | Ave OD [3] | OD S/N (ratio to GST-only well) [3] | Ave OD [4] [A450 nm] | OD S/N (ratio vs GST only) [4]
1 | B1 | 1.6 | 1.6 | 3.43 A450 nm and 1.27 A450 nm | 20.4 and 8.53 |  | 
2 | B2 |  |  | 3.4 A450 nm and 3.12 A450 nm | 19.8 and 17.1 |  | 
3 | B3 |  |  | 0.608 A450 nm | 2.11 | 0.365 | 1.42
4 | B4 |  |  | 0.518 A450 nm | 2.64 |  | 
5 | B5 |  |  |  |  | 0.425 | 1.38
6 | B6 |  |  |  |  | 0.39 | 1.81
7 | B7 |  |  |  |  | 0.36 | 1.66
8 | B8 |  |  |  |  | 0.348 | 1.8
9 | B9 | 0.056 |  |  |  |  | 
10 | B10 | 3.8 | 3.8 |  |  |  | 
11 | B11 | 7.5 | 7.5 |  |  |  | 
